Measured values as given in PMC6919601, “Identification of Plasmodium dipeptidyl aminopeptidase allosteric inhibitors by high throughput screening” (PLoS ONE, 2019).
The campaign covered roughly 110,000 compounds. About 230 (0.21%) showed an effect of 50% or more. The list shows a part of the results.

Target: DPAP1 (Plasmodium falciparum, UniProt Q8IIJ9)
Assay: primary screen, percent inhibition; read by cleavage of a fluorogenic dipeptide substrate; higher = more effect of the substance
Parameters: species or system P. falciparum D10 trophozoite lysates; single well
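Note: 30 min substrate incubation versus DMSO and 10 µM JCP410 controls.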

Chain of DPAP1 (Q8IIJ9 whole entry, looked up): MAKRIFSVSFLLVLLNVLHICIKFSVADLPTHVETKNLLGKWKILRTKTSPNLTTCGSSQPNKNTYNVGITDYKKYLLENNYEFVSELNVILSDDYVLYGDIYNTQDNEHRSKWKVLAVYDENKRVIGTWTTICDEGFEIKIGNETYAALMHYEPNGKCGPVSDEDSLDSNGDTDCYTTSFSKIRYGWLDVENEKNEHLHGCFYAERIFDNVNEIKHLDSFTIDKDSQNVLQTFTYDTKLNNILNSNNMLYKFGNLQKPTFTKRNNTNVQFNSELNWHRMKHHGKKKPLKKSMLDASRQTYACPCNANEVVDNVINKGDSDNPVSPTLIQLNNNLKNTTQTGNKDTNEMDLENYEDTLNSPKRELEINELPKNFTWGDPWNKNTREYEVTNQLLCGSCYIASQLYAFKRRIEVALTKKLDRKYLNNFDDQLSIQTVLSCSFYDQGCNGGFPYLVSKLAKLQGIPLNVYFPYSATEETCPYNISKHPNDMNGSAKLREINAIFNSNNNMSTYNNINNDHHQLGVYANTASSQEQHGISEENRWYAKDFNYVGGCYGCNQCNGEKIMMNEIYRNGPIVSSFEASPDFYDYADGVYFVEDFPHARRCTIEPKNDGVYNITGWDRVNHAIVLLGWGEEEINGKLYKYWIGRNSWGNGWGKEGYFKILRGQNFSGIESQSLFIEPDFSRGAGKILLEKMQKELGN

Structure (SMILES)	% Inhibition @ 10 uM [%]
O=C(NCCc1ccccc1)c1ccc(-c2ccccc2)s1	-2.17
CP(=O)(O)C(c1cccc(Cl)c1)C(F)(F)F (centres unmarked)	7.24
CCN1C(=O)/C(=C\c2ccc(F)cc2)N=C1SCC(=O)NCc1ccco1	5.83
CC(=O)c1cccc(N2C(=O)C3C4c5ccccc5C(c5ccccc54)C3C2=O)c1 (centres unmarked)	2.13
O=C(CC12CC3CC(CC(C3)C1)C2)N1CCN(c2ccccc2F)CC1	-3.65
O=c1c(-c2ccccc2)c(O)cc(-c2ccncc2)n1-c1ccc(Cl)cc1	-1.07
COC(=O)c1nc2n(n1)C(c1ccc(C)cc1)C1=C(O)CCCC1=N2 (centres unmarked)	1.26
COc1cccc(=O)c2c(C)n(-c3ccc(C(=O)O)cc3)c(C)c12	0.778
c1cncc(-c2nnc(SCc3cccc4ccccc34)o2)c1	-6.71
CC(C)(C)c1[nH]nc2c1C(c1ccc(F)cc1F)C(C#N)=C(N)O2 (centres unmarked)	-0.883
CCCn1c2c(c(=N)c3c1CCC3)CCC2	4.07
COC(=O)C1CCCN1Cc1ccccc1C (centres unmarked)	3.24
Cc1cc2c(c(=O)n1CCN(C)C)C(c1cccc(Br)c1)C(C#N)=C(N)O2 (centres unmarked)	5.5
Cc1nnc2c(N3CCN(C4CCCCC4)CC3)nc3ccc(C(=O)c4ccccc4)cc3n12	-0.984
CC(C)N1C(=O)/C(=C\Nc2ccc(Br)cc2)C(=O)N(Cc2ccco2)C1=O	-1.06
COc1ccc(C)cc1N(CC(=O)NCc1ccc(Cl)cc1)S(=O)(=O)c1ccccc1	6.24
O=C(O)c1cccc(NS(=O)(=O)c2cccc(S(=O)(=O)c3ccccc3)c2)c1	4.82
O=C(CCn1ccc2cc(S(=O)(=O)N3CCCC3)ccc21)NCc1ccc2c(c1)OCO2	0.58
COc1cc(-c2nnc3sc(COc4cccc(C)c4)nn23)cc(OC)c1OC	23.3
Cc1c(C(c2cccc([N+](=O)[O-])c2O)c2c(C)n(C)n(-c3ccccc3)c2=O)c(=O)n(-c2ccccc2)n1C	5.03
CCC(C(=O)NCCC(C)C)n1nc(C)c2c(C)n(-c3ccc(C)cc3)nc2c1=O (centres unmarked)	-2.52
Cc1ccc(C2C(C#N)=C(N)N(c3ccc(S(N)(=O)=O)cc3)C3=C2C(=O)CC(C)(C)C3)cc1 (centres unmarked)	-2.45
C/N=C1/S/C(=C/c2ccc(OC)c(OC)c2)C(=O)N1C1CCCCC1	-2.28
CCC(NC(=O)c1ccc(Br)o1)c1ccc(C)cc1 (centres unmarked)	-7.33

Structure (SMILES)	% Inhibition @ 10 uM [%]
COc1ccccc1-c1coc2c(CN3CCN(C)CC3)c(O)ccc2c1=O	-4.78
CCCCC1CCC(C(=O)Nc2c3c(nn2-c2ccc(OC)cc2)CS(=O)(=O)C3)CC1 (centres unmarked)	2.79
NS(=O)(=O)c1ccc(NS(=O)(=O)c2ccc(NC(=O)CCc3ccccc3)cc2)cc1	-1.02
Nc1nonc1-c1nc2ccccc2n1CC(=O)Nc1ccc(F)c(Cl)c1	-3.65
CCCN1CCN(C(=O)C2CCN(c3ncnc4c3nc3n4CCCCC3)CC2)CC1	0.721
O=C(O)CCC(=O)Nc1ccc(S(=O)(=O)N2CCCC2)cc1	4.09
COc1ccc(-n2nnc(-c3nc(-c4ccccc4F)no3)c2N)cc1	-2.15
COc1ccc(-c2cc3c(=O)n(CC(=O)N4CCC(N5CCCCC5)CC4)ncn3n2)cc1	0.623
CC(C)CN1CC(=O)C(c2nc3ccccc3[nH]2)=C1N	3.74
CC[C@@H](C)[C@@H](CS(=O)(=O)N[C@@H](CCc1ccccc1)C(=O)COc1cccc(OC)c1)NC(=O)OCc1ccccc1	-7.36
COCCCn1c(SCC(=O)Nc2ccc(Cl)cc2)nc2sc3c(c2c1=O)CCC3	3.46
Cc1ccccc1OCC(O)Cn1c(SC(C)C(=O)O)nc2c1c(=O)[nH]c(=O)n2C (centres unmarked)	8.26
Cc1cccc(NC(=O)C(c2ccccc2)c2ccccc2)n1	4.22
CC(C)CCCN1C(=O)NC(=O)/C(=C\c2ccccc2Cl)C1=O	0.98
CCn1c2ccccc2c2cc(CN3CCN(C/C=C/c4ccccc4)CC3)ccc21	3.9
Cc1ccc(CNC(=O)CCn2ccc3cc(S(=O)(=O)N4CCC(C)CC4)ccc32)cc1	0.181
COc1ccc(CCNC(=O)c2sc3nc4n(c(=O)c3c2C)CCCCC4)cc1OC	2.34
CC1=C(C(=O)N2CCCCC2)C(c2cccc(O)c2)C2=C(O)CC(C)(C)CC2=N1 (centres unmarked)	0.219
O=C(CN1CCOCC1)Nc1ccc(Br)cc1C(=O)c1ccccc1	3.44
CCCCC(=O)Nc1ccc2c(c1)OCCO2	-4.65
OC(CN1CCN(C/C=C/c2ccccc2)CC1)Cn1c2ccc(Cl)cc2c2cc(Cl)ccc21 (centres unmarked)	6.96
CC1CN(C(=O)c2ccncc2)C(C)CN1C(=O)c1ccncc1 (centres unmarked)	-1.1
COc1ccc(NC(=O)CN(c2ccc(Cl)c(Cl)c2)S(=O)(=O)c2ccccc2)cc1OC	1.62
CCN(CC)c1ccc(NC(=O)C23CC4CC(C2)CC(n2cnc(Br)n2)(C4)C3)cc1	19.7

Structure (SMILES)	% Inhibition @ 10 uM [%]
O=C(c1cccc(F)c1)N1CCN(CCO)CC1	6.82
O=C(NCCN1CCC(Cc2ccccc2)CC1)C1CCCN(S(=O)(=O)c2c[nH]cn2)C1 (centres unmarked)	4.54
CC1=NC(C(F)(F)F)(C(F)(F)F)N=C(N(C)C)O1	-7.35
O=c1oc2ccc3ccccc3c2cc1-c1nc(-c2ccncc2)no1	2.99
O=C(NC(Cc1ccccc1)c1nc2ccccc2[nH]1)c1ccccc1 (centres unmarked)	-4.23
COCc1cc(C)nc2sc(C(=O)Nc3nccs3)c(N)c12	-1.92
N=C(NOC(=O)c1ccc(Br)o1)c1ccncc1	0.565
O=c1c(Br)cccc(Br)c1O	-3.06
Cc1c(C(=O)N2CCC(C(=O)N3CCCCC3)CC2)oc2cc3sc(N(C)C)nc3cc12	-10.5
Cc1ccc(C)c(Cn2c(C(=O)O)c(CNCc3ccc(Cl)cc3)c3ccccc32)c1	-1.44
Cc1cc(C)c2c3c(sc2n1)C(c1ccc(F)cc1)C(C#N)=C(N)O3 (centres unmarked)	-0.305
CCOc1cc(C2C(C#N)=C(N)Oc3[nH]nc(COC)c32)ccc1O (centres unmarked)	2.8
O=C1CCCC2=C1C(c1ccc(Cl)cc1)Nc1ccc3ncccc3c12 (centres unmarked)	4.63
CCOc1ccccc1NC(=O)CN(c1cccc(Cl)c1C)S(C)(=O)=O	-5.92
O=C1S/C(=C\c2cc3c(cc2Cl)OCO3)C(=O)N1Cc1ccc(F)cc1	1.81
CCn1c(C)nc2c(CN(C)C)c(O)ccc21	-8.8
C=CCNC(=O)CCCc1nnc2n(C)c(=O)c3sccc3n12	2.45
O=C(CCCC(=O)Nc1cccc(Cl)c1)Nc1cccc(Cl)c1	2.68
CC1CCCN(c2nc3c(-c4cccc(Br)c4)nnn3c3ccccc23)C1 (centres unmarked)	-1.21
Cc1ccc(S(=O)(=O)N2CCN(c3cccc(C)c3)CC2)cc1	1.34
CC[n+]1cn(CC(O)COc2ccc(C(C)=O)cc2)c2cc(C)c(C)cc21 (centres unmarked)	-3.41
CC(C)C1Nc2ccc(S(N)(=O)=O)cc2C2C=CCC21 (centres unmarked)	2.05
O=C(c1ccccc1Cl)N(Cc1cccc(Cl)c1)Cc1ccco1	-0.45
CSc1ccc(-c2nc(CSCC(=O)N3CCN(Cc4ccccc4)CC3)c(C)o2)cc1	2.37

Structure (SMILES)	% Inhibition @ 10 uM [%]
C=CCOc1c(Br)cc(/C=C2/C=C(c3ccc(OC)cc3)OC2=O)cc1OC	1.52
O=C(O)/C=C/c1ccc2ccccc2n1	-3.98
Clc1ccc(-c2nnc(SCc3ccc(Br)cc3)o2)c(Cl)c1	4.03
O=C(Nc1ccccn1)c1cnn(-c2ccc(Cl)cc2)c1C1CCNCC1	-6.14
Cc1ccc2nsnc2c1S(=O)(=O)NCCc1c(C)[nH]c2ccc(F)cc12	2.1
CCN(CC)c1ccc(C2C3=C(O)CC(C)(C)CC3=NC(C)=C2C(=O)Nc2cccc(C)n2)cc1 (centres unmarked)	-2.53
Cc1cc(NC(=O)c2ccc(F)cc2)n(-c2nc3ccccc3[nH]2)n1	-9.11
O=CN1CCN(Cc2cccc(Br)c2)CC1	-9.93
NC(=O)c1cc(S(=O)(=O)N2CCOCC2)cs1	-4.95
CCOc1ccc(/C=C2/SC(Nc3cccc(C(=O)O)c3)=NC2=O)cc1OC	-3.09
Cc1ccc(C(=O)Nc2cccc(O)c2)cc1S(=O)(=O)N1CCOCC1	4.8
COc1ccc(Br)cc1-c1nc(C)c(C(C)=O)n1O	-2.9
CCN1C(=O)C(O)(CC(=O)c2ccccn2)c2cc(Br)ccc21 (centres unmarked)	-4.15
COc1ccc(C(O)(CC(C)C)C(CN2CCOCC2)c2ccccc2)cc1 (centres unmarked)	-0.551
Cc1cccc(NC(=O)c2cc(-c3ccc(C)s3)nc3ccccc23)n1	7
CCOc1cc(C2c3c(oc4cc(C)cc(C)c4c3=O)C(=O)N2CCCO)ccc1O (centres unmarked)	7.8
COc1cc2c(cc1OC)CN(Cc1ccccc1C(F)(F)F)CC2	-0.261
Cc1[nH]c2cc(C(=O)O)ccc2c1C	1.25
CCOC(=O)c1c(NC(C)=O)sc2c(OC)c(Br)ccc12	-8.51
Cc1cc(C)c(NC(=O)c2ccc(-c3ccccc3)cc2)c(C)c1	-5.51
CCOc1ccc(C2C(C(=O)NC)=C(C)Nc3nc4ccccc4n32)cc1 (centres unmarked)	-2.5
Cc1nn(CC(=O)N2CCC3(CC2)OCCO3)c2ccccc12	-2.88
Cc1ccc2c(CNC3CCC(C)CC3)c(C(=O)O)[nH]c2c1 (centres unmarked)	9.05
